Data: the supplement of paper PMC3334620
In all, about 33,000 sequences were measured (“E-score (-0.5 to 0.5)”: median about -0.056, highest 2% from about 0.38 on). Some of the results follow.

Target: Stb4 (UniProt P50104)
Assay: PBM E-score (8-mer binding enrichment) (E-score (-0.5 to 0.5)); higher = stronger / more preferred TF binding; most listed sequences are background and not binding sites
Settings: protein concentration: 200 nM; construct: GST-DNA-binding domain
Procedure: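 Universal 'all 10-mer' protein binding microarrays (Agilent AMADID 015681) probed with GST-tagged S. cerevisiae TFs (full-length or DBD) made by in vitro transcription/translation (PURExpress), about 100-200 nM. Bound TF was detected with fluorescent anti-GST. Each ungapped 8-mer (which stands for itself and its reverse complement) is scored by the PBM enrichment score (E-score), a modified Wilcoxon-Mann-Whitney statistic from -0.5 to +0.5, computed with the Universal PBM Analysis Suite. Scale: above 0.35 generally sequence-specific binding.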

Sequence | PBM E-score
CGCTAATA | 0.0293
ACTACCGG | 0.186
GCAATGGA | -0.0896
AAACAAGT | -0.188
CTGGGGCC | -0.0199
ACCACATC | 0.0652
AACTTTGG | -0.105
ATGTTGAG | -0.0742
GCAATTCC | 0.163
CCAAATCG | -0.0151
CCTCAGAC | -0.0262
GGGGTACA | -0.045
ACAATACC | -0.00908
AACAGGTG | -0.269
ACCGTGAT | 0.0344
ACCGGGTG | 0.258
ACCTGACG | -0.264
GCACCCCC | -0.0162
CTGACCAA | -0.024
AGCAACCT | -0.127
GGGGAACC | -0.137
TGGTCACA | 0.0975
AGCAGTAC | 0.0047
CTCTCGTA | -0.0374
ACCACGTC | -0.107

Sequence | PBM E-score
CTTGGGCC | -0.0676
AAATATGG | -0.0857
ATCAAGGG | -0.0462
CAGGATTA | 0.00923
GTATCAAC | 0.0997
ACGACGAT | 0.0327
CGAGCACC | 0.204
TACGCATA | -0.0809
CTTGTCGC | -0.0633
TATCGAAA | -0.13
ACTGAGAT | -0.258
AGGGAACA | -0.067
AACTAAAG | -0.256
GCGCCCGC | -0.0138
GCGATCCC | -0.018
CCAGCGCG | -0.0531
CATCGGTC | 0.114
GCAAGAAC | -0.101
TCAATTGA | 0.034
CCTGACTC | -0.211
CATCTTCA | -0.182
CAGAGATG | -0.266
AGACCTTC | -0.188
GCCCATCA | -0.113
AACTGAAA | -0.121

Sequence | PBM E-score
CTCTCGCA | -0.148
CCCAAGAC | -0.0533
CCCTTGTA | -0.0961
TCCGGGAA | 0.388
CAGAGATC | -0.0651
TAGGCACA | -0.135
GTGATTTA | 0.124
CCCTCACG | -0.167
AATCGTGG | -0.218
AATTTTTG | -0.191
AGACGACG | -0.0786
ATCCAGTA | -0.0376
GCATGCCC | 0.012
GGGTTGAC | -0.108
AAAAGGAG | -0.0435
CAGAAATA | -0.163
CTCCGAAG | 0.413
AACGGCAC | 0.105
ATGCCCTC | -0.146
GAGCTCGA | -0.0103
ATCATCGC | -0.269
CCTTTGTC | -0.141
CTACAGAA | -0.155
TCTAACCA | -0.181
CGGCCGGA | 0.349

Sequence | PBM E-score
CCTACAGC | -0.0731
AAACATTA | -0.133
CCGCTTAG | 0.134
CCCACAGG | -0.217
AAGTCAAA | -0.108
TGAGGACA | -0.21
AAGCACGG | 0.0998
GCTCGCAC | 0.0901
GCAGAATA | -0.0302
CAACTCAC | -0.227
ACGAGCCC | -0.198
TGAACAAA | 0.021
ATTCTATG | -0.00015
AGGATATG | -0.156
ATACCGAA | 0.392
ATACGGGC | 0.155
CAGTCTGG | -0.156
ACGCACTA | -0.155
CTTTGCCC | -0.0931
AGCGCGGA | 0.224
ATGTATGG | -0.277
CCCCTGAA | -0.129
ATCTATTA | 0.0372
AGACCCCC | -0.0201
CATCCAAG | -0.133

Sequence | PBM E-score
CCTTCAAG | -0.097
AGCACGAT | -0.207
AAGGGTAG | 0.0126
GCTAGTTA | 0.032
ATAGTAGA | -0.0928
ACGATGCA | -0.131
AGTATCTG | -0.011
ACTGTTGA | -0.199
TATATGAA | -0.0698
GAGGTATA | -0.159
ATGTTCAA | 0.0011
ACAATGCA | -0.0359
CAGGTTGG | -0.0724
CCGCACGG | 0.153
CCGCCTTA | -0.0162
CGAAAGCC | 0.0757
CGTGGTTA | -0.233
AAGACACG | 0.0111
AGTCCGTC | 0.114
AGTACTAA | -0.207
AAGTTCCT | -0.00611
AGATTCCA | -0.131
TCTGGCCA | -0.244
ATGGGGCG | -0.0357
GCGATACC | -0.0864

Sequence | PBM E-score
AGAACTGA | -0.162
CCTTAGCA | -0.0552
ATCGACGC | -0.126
GGCCAGAC | 0.00928
ATTTAGTA | 0.0191
GGATTAAA | 0.146
GCGGTTGA | 0.0648
GGCCAACC | 0.127
TATACGAA | -0.0052
AATGATAA | 0.0517
ACACTCCT | -0.00879
AATTCCAC | 0.122
AGGGAGTA | -0.146
CACGTTGC | -0.0203
AAGTTCAT | 0.0868
GAGCGCGC | 0.00394
GGACCCCC | 0.0372
ACTTGCAC | -0.125
AGACCACC | -0.18
AGGCGGCC | 0.022
AGGTCGAC | -0.121
AAACGTAT | -0.0474
ACCGTAAA | -0.0328
ACTGGCAA | -0.184
AAATGTGG | -0.0435

Sequence | PBM E-score
GCGCAAAA | 0.00665
CAAGGCAA | -0.217
GGTACGTA | 0.125
ACCCAAAA | -0.0695
ACCCGGCG | 0.3
TATATACA | -0.0996
AGCAGACT | -0.168
AGGGCGAT | -0.278
CCATATCC | 0.177
GCCTTCGC | -0.00246
CGTGCGAA | -0.0361
ACAGGCTG | -0.343
GACAAGGC | -0.149
ACGGGAAA | 0.276
AATAACTG | -0.0326
GCTCGAGC | -0.0154
CTATTTCC | 0.1
CAGACTGA | 0.00844
ACATACGT | -0.164
CACACCCC | 0.0433
AGGGGGTG | -0.23
ATAGGTCA | -0.153
GAATTTAC | 0.0566
ACAATGAC | -0.176
CGCCTGAA | -0.114

Sequence | PBM E-score
TATTAACA | -0.104
AGAAGTGG | -0.00087
AATGCGAG | -0.153
GCACCTAA | -0.0958
AGTCGGTG | -0.029
CACGATGG | -0.257
AAGGTAAA | 0.0558
CGCGTCGC | -0.0788
ACCATTAT | -0.0391
TGACATAA | 0.00403
AACAATCT | -0.0248
ACCGCAGG | 0.0861
AACTTCTT | -0.132
AACATAGA | -0.00346
CATGTGAC | -0.412
ACGCGAAT | -0.164
GGACTAGA | 0.0751
AGATGACC | 0.00621
CTTAACCA | -0.207
ATGAAGGC | -0.131
CGCCCTCA | -0.0542
CGCAAGCA | -0.176
ACATGTAT | -0.088
TAAACGAA | -0.157
CAGTTATG | -0.13

Sequence | PBM E-score
AGGCGTCG | -0.0232
CCCCGCCA | 0.232
AGTATGCG | 0.0955
AAATAATA | 0.132
AACGTGCT | -0.139
GCACCCGA | 0.434
AGACTTAT | -0.205
CGGCAGAC | 0.18
AGCGGTTG | -0.124
ACCAACGG | 0.166
ATGGTGCC | 0.143
AGCAGGGG | -0.051
GGACCCGA | 0.386
GTGACAAA | -0.175
TCGTGAAA | -0.1
TAAATACA | -0.0802
TGTGCTAA | 0.111
GGACTTTA | 0.156
AACTCTCG | 0.0945
